# Measurements: PubChem BioAssay AID463173 (ICCB-Longwood Screening Facility, Harvard Medical School, 2010)
# The whole screen tested about 52,000 compounds, of which about 4,300 (8.3%) were called active. Cut-off read from the data, not from the text of the source: active = survival mostly below about 52% (no sharp cut-off); inactive = mostly above about 56%. Some of the results follow.
# Test system: DeltatarO mutant
# Assay: growth inhibition of S. aureus wild type versus tarO mutant, primary screen, teichoic acid synthesis inhibitors, RN4220, OD600 (AID 463173)
# Conditions: OD600, 18 h, active compounds read low, screened at 18.75 µg/mL (by protocol)
row,Compound,survival
1,Cc1ccc(NC(=O)CN2C(=O)C3(SCC(=O)N3c3cccc(Cl)c3)c3ccccc32)cc1C (centres undefined),inactive: 78%
2,Cc1ccc(NS(=O)(=O)c2ccc3c(c2)CCCN3C(=O)C2CCC2)cc1Cl,inactive: 107%
3,Nc1c(C(=O)Nc2ccc(C(=O)O)cc2)sc2nc3c(cc12)CCCC3,active: 42%
4,Cc1ccc(-c2nc3c(c(SCC(=O)Nc4ccccc4Cl)n2)Cc2c(CO)cnc(C)c2O3)cc1,active: 46%
5,CCOC(=O)c1c(S(=O)(=O)NCC(=O)NCc2cccc(C)c2)c(C)n(C)c1C,inactive: 84%
6,Cc1ccc(CS(=O)(=O)c2ncc(Cl)c(C(=O)Nc3nc4ccc(F)cc4s3)n2)cc1,active: 9%
7,CCC(Oc1ccccc1)C(=O)Nc1cc(-c2ccccc2OC)nn1-c1ccccc1 (centres undefined),inactive: 75%
8,Cc1cc(Cl)nc(-c2ccccc2)n1,inactive: 91%
9,O=C(N/N=C/c1cn(-c2ccccc2)nc1-c1ccccc1)c1ccco1,inactive: 77%
10,COC(=O)CN1C(=O)c2ccccc2NC1c1ccc(OC)cc1 (centres undefined),inactive: 78%
11,CC1CCC(NC(=O)c2ccc3c(c2)N(Cc2ccccc2F)C(=O)c2ccccc2S3=O)CC1 (centres undefined),inactive: 80%
12,CCOc1ccc(CCNC(=O)Cn2ncn3c(cc4sc(C)cc43)c2=O)cc1OCC,inactive: 71%
13,COc1ccc2c(c1)sc1ncc(C(=O)NCc3ccc(Cl)cc3)c(=O)n12,inactive: 58%
14,CCN1CCN(c2oc(/C=C/c3ccc(OC)c(OC)c3)nc2C#N)CC1,inactive: 66%
15,Clc1ccc(-c2cn3ncsc3n2)cc1,inactive: 66%
16,COc1ccc(-n2cc(C(=O)OCc3ccc(F)c(F)c3)c3ccccc3c2=O)cc1,inactive: 98%
17,CCc1ccc(NS(=O)(=O)c2ccc3[nH]cc(C(=O)NCCc4cccc(C)c4)c(=O)c3c2)cc1,inactive: 67%
18,CCCN1C2CCCC1CC(NC(=O)c1cc(OC)c(OC)c(OC)c1)C2 (centres undefined),inactive: 97%
19,Cc1ccc(OC(=O)c2cc(-c3ccc(Cl)cc3)on2)c(C)c1,inactive: 92%
20,Cc1cccc(N2CCN(C(=O)CCc3c(C)nc4c(c3C)c(=O)n(C)c(=O)n4C)CC2)c1C,inactive: 93%
21,COc1ccc(C2C(=O)N(C3CCCCC3)CC(=O)N2CCC2=CCCCC2)cc1 (centres undefined),inactive: 88%
22,O=C(NC1(C(F)(F)F)C(=O)Nc2c1c(=O)[nH]c(=O)n2-c1ccc(F)cc1)c1ccccc1 (centres undefined),inactive: 80%
23,CCOc1ccc(-n2c(=O)c3sc4ccccc4c3n(Cc3cccc(C)c3)c2=O)cc1,inactive: 127%

row,Compound,survival
1,CCOC(=O)Cc1nnc2c(Nc3cc(C)ccc3C)nc3nonc3n12,inactive: 101%
2,COc1ccc(NC(=O)Cn2c3ncccc3c(=O)n2-c2ccc(C)c(C)c2)c(OC)c1,inactive: 107%
3,O=S(=O)(Nc1ccc2nc(-c3ccc(F)cc3)oc2c1)c1ccccc1,active: 32%
4,CCOCCCNC(=O)C(c1ccc(OC)cc1)N(Cc1ccc2c(c1)OCO2)C(=O)c1ccc(NC(C)=O)cc1 (centres undefined),inactive: 50%
5,CCCCc1nn2c(=O)cc(COC(=O)c3ccc(NC(=O)c4ccccc4Cl)cc3)nc2s1,inactive: 89%
6,COc1cccc(CNC(=O)C(NS(=O)(=O)c2cccs2)C(C)C)c1 (centres undefined),inactive: 80%
7,COc1cccc(CNC(=O)c2ccc3nc(N4CCCCC4)sc3c2)c1OC,inactive: 50%
8,Cc1ccc(CN2CCSc3ccc(C(=O)N4CCN(c5ccc(Cl)cc5)CC4)cc32)cc1,inactive: 72%
9,CCCCN1C(=O)c2[nH]nc(-c3ccccc3O)c2C1c1cc(Br)c(O)c(OC)c1 (centres undefined),active: 2%
10,O=c1c2cccnc2n(Cc2ccccc2F)c(=O)n1Cc1ccc(F)cc1,inactive: 78%
11,Cc1ccc(C)c2[nH]c(=O)c(C3NC(=O)c4ccccc4N3)cc12 (centres undefined),inactive: 86%
12,Cc1cccc(C(=O)Nc2ccc3oc(-c4cccc5c(Br)cccc45)nc3c2)c1,inactive: 67%
13,COc1ccc2c(c1)CC(C(=O)NCc1ccc(F)cc1)CO2 (centres undefined),inactive: 73%
14,COc1ccc(CCNCc2c(C(=O)O)c(C)n(Cc3c(F)cccc3Cl)c2C)cc1OC,inactive: 121%
15,Cc1cc(OCC(=O)Nc2ccc(C(=O)OC3CCCCC3)cc2)cc(C)c1Cl,inactive: 50%
16,CCc1ccc(NC(=O)C2CCN(c3nc(-c4ccc(OC)cc4)no3)CC2)cc1,inactive: 84%
17,CCOc1ccc2nc(N3CCN(C(=O)c4ccc5c(c4)CCCC5)CC3)sc2c1,inactive: 65%
18,Cn1c(=O)[nH]c(=O)c2c1nc(N1CCCC1)n2CCSc1ncccn1,inactive: 73%
19,Cc1ccc2[nH]c(=O)c3cc(C(=O)N(C)c4ccc(Br)cc4)sc3c2c1,inactive: 68%
20,CC(=O)Nc1cc(C(=O)NCc2ccccc2Cl)ccc1Sc1ccc(F)cc1,inactive: 94%
21,Cc1cc(C)cc(NC(=O)c2cc(S(=O)(=O)NCCC3=CCCCC3)ccc2F)c1,inactive: 67%
22,Cc1ccc(NC(=O)c2cc(S(=O)(=O)N3CCCCC3)c[nH]2)cc1N(C)C,inactive: 94%
23,CCCS(=O)(=O)c1nc(S(=O)(=O)c2ccc(C)cc2)c(N(CC)CC)s1,inactive: 112%

row,Compound,survival
1,CCOC(=O)c1ccc(NC(=O)CSc2c(C(C)C)cnc3c2c(=O)n(C)c(=O)n3C)cc1,inactive: 107%
2,Cc1ccc(-n2nc(C)c3nc(CCC(=O)Nc4cccc(C)c4C)c(=O)n(C)c32)cc1,inactive: 92%
3,Cc1cc(C)c2c(CC(=O)Nc3ccc(F)cc3)coc2c1,inactive: 54%
4,CC(C)OC(=O)c1ccc2c(c1)no[n+]2[O-],inactive: 98%
5,COc1ccc(CNC(=O)Cn2nc3c(cc2=O)CCCC3)cc1,active: 46%
6,Cc1cccc(N2C(=O)N(Cc3cc(=O)n4ccccc4n3)c3ccccc3S2(=O)=O)c1,inactive: 97%
7,Cc1ccc2c(c1)C(=O)OC(C(=O)Nc1ncc(Cc3ccccc3Cl)s1)C2 (centres undefined),inactive: 68%
8,COc1ccccc1CN1CCN(C(CC(C)C)c2nnnn2Cc2ccc(F)cc2)CC1 (centres undefined),inactive: 85%
9,Cc1ccc(-c2cc(-c3ccc4c(c3)NC(=O)CO4)nc3c2COc2ccccc2-3)cc1,inactive: 85%
10,COc1ccc2c(c1)c1c(c(=O)n(-c3ccc(F)c(Cl)c3)c(=O)n1Cc1cccc(C)c1)n2C,inactive: 80%
11,Cc1ccc(C(=O)Nc2c(C(=O)NC(C)(C)C)oc3ccccc23)cc1,active: 32%
12,CCOc1ccc2c(c1)c(=O)c(C(=O)c1ccccc1)cn2Cc1ccccc1,inactive: 87%
13,Cc1c(CCC(=O)NCCc2ccccc2)c(=O)oc2cc(O)ccc12,inactive: 53%
14,CCc1cccc(CC)c1NC(=O)C(CC)n1nc(C)n2c(cc3cc(C)ccc32)c1=O (centres undefined),inactive: 53%
15,CCOC(=O)CSc1nnc(COc2cccc(C)c2)o1,active: 42%
16,CCOC(=O)c1c(C)[nH]c(C)c1S(=O)(=O)N1CCCC(C(=O)Nc2ccccc2OCC)C1 (centres undefined),inactive: 120%
17,Cc1ccc2c(c1)C(c1ccccc1)N(C(=O)c1ccccc1F)CC(=O)N2 (centres undefined),inactive: 75%
18,CCCc1[nH]nc2c1C1(CCN(C(C)=O)CC1)C(C#N)=C(N)O2,inactive: 74%
19,CCc1cccc2cc(CN)c(=O)[nH]c12,inactive: 98%
20,CCCn1c(SCc2nc(-c3cc(OC)ccc3OC)no2)nnc1-c1ccc(Cl)cc1,inactive: 63%
21,CCOC(=O)c1cccc(NC(=O)c2cc3cc4ccc(C)cc4nc3o2)c1,inactive: 77%
22,COc1ccc(O)c(-c2cn[nH]c2-c2cccs2)c1,inactive: 89%
23,COCCN=C1Sc2nc3c(C)cccc3cc2CN1Cc1ccco1,inactive: 108%

row,Compound,survival
1,COc1ccc2c(c1)c(=O)c(S(=O)(=O)c1ccc(Cl)cc1)cn2C,inactive: 89%
2,N#Cc1ccc(NC(=O)CNCCN2CCOCC2)cc1,inactive: 79%
3,Cc1ccccc1CNC(=O)C1CCN(c2nnc(-n3c(C)ccc3C)s2)CC1,inactive: 101%
4,Cc1cccc(NC(=O)N2CCC(CN3CCC(C)CC3)CC2)c1C,inactive: 82%
5,CSc1nc(Nc2cccc(C)c2)c(C#N)c(-c2ccccc2)n1,inactive: 93%
6,CNc1c(NC(=O)c2cc(OC)cc(OC)c2)c(=O)oc2ccccc12,inactive: 77%
7,Cn1c(SCC(=O)N2CCCc3ccccc32)ncc(C(=O)Nc2ccc(F)cc2)c1=O,inactive: 78%
8,CCOC(=O)c1cnc2ccc(OC)cc2c1NCCc1ccc(OC)c(OC)c1,inactive: 65%
9,CCCCNC(=O)c1nn(-c2ccc(C)cc2)c(=O)c2c1c1ccccc1n2C,inactive: 81%
10,Cc1ccc(C(=O)CCNc2ccc(F)c(Cl)c2)o1,inactive: 85%
11,Cc1cccc(CNC(=O)c2cccc(NC(=O)N3CCSc4ncccc43)c2)c1,inactive: 83%
12,CCN1CCN(c2csc3ccc(C)cc3c2=O)CC1,inactive: 74%
13,Cc1ccc(-n2ncc(C(=O)Nc3ccc4c(c3)OCCO4)c2C2CCN(C(=O)OC(C)(C)C)CC2)cc1,inactive: 115%
14,Cc1ccccc1-c1noc(-c2cc3ccccc3oc2=O)n1,inactive: 85%
15,COc1ccc(Br)cc1CNC(=O)CSc1cc(=O)n(C)c2ccccc12,inactive: 99%
16,Cc1ccc(-c2nc(CS(=O)(=O)CC(=O)N3CCN(c4cccc(C)c4C)CC3)c(C)o2)cc1,inactive: 116%
17,CC1CCN(S(=O)(=O)c2ccc3c(c2)oc(=O)n3CC(=O)NC(C)c2ccccc2)CC1 (centres undefined),inactive: 119%
18,CCCc1ccc(OC(C)C(=O)Nc2sc3c(c2C(=O)OC)CCCCC3)cc1 (centres undefined),active: 9%
19,CC(=O)C1=C(c2ccc(Cl)c(Cl)c2)N(C(C)=O)n2c(nnc2C2CCCCC2)S1,inactive: 100%
20,O=C(CCc1nnc2n(Cc3ccccc3Cl)c(=O)c3ccccc3n12)Nc1ccc(F)cc1,inactive: 77%
